According to PubChem BioAssay AID1379 (National Center for Advancing Translational Sciences (NCATS), 2008):
Where “and” joins values, the source holds several entries; their conditions need not be identical. Identical values can stand only once. The campaign covered roughly 200,000 compounds. About 560 (0.28%) were called active. The inconclusive results got no clear call from the source; some entries with a clear call stand among them for comparison. Calls follow the shape of the dose curve; as a rule, active = well fitted inhibition curve with a large enough effect; inconclusive = small, poorly fitted or top-dose-only effect; inactive = flat fitted curve, though single readings scatter. No potency is given beside an inconclusive call; the fits are too rough.

target: Luciferin 4-monooxygenase (Photuris pensylvanica) (UniProt Q27757); assay: Counterscreen for Luciferase (Kinase-Glo TM) Inhibition; settings: ATP luminescence, 8 min; series mostly up to 38.3 µM; also: nearly all actives have a fitted effect of over 60% in size
Outline: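 Inhibition of Kinase-Glo luciferase light generation was assessed at 10 uM ATP in pH 7.2 imidazole buffer, with luminescence measured after eight minutes at ambient temperature.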
% is scaled to controls: 0 for no effect and ±100 for the full control effect; potency is read from the fitted curve at half-maximal effect; tags tell the direction and shape of the fitted curve.

Structure (SMILES)	Potency	activity change, negative = inhibition
CS(=O)(=O)c1ccc2nc(NC(=O)c3ccco3)sc2c1	inconclusive [inhibitor, partial curve]	–
O=C(COc1ccc(F)cc1)Nc1nccs1	inconclusive [inhibitor, partial curve]	–
O=C(Nc1cnc2ccccn2c1=O)c1ccc(Cl)cc1Cl	inconclusive [inhibitor, single point]	–
COc1ccc(NC(=O)c2sc(NC(=O)COc3ccccc3)nc2C)cc1	inconclusive [inhibitor, partial curve]	–
O=C(Nc1ccccn1)c1ccc2c(c1)OCO2	active: 11.2 µM	–
CC(C)Sc1nsc2nc(=O)c(/C=C3\C=Nc4ccccc43)c(N)n12	inactive	–
CC(C)(C)NC(=O)NC(=O)COc1ccccc1C#N	inconclusive [inhibitor, single point]	–
COc1cccc(/C=N/NC(=O)c2nc(-c3ccccc3)cc(-c3ccccc3)n2)c1	inactive	–
c1ccc(-c2noc(C3CCCCC3)n2)nc1	inconclusive [inhibitor, single point]	–
N#CC(C#N)=c1ccc2c(c1)N1C3=C(CCCC3)CC3CCCCC31N=2 (stereo not given)	inconclusive [inhibitor, partial curve]	–
COC(=O)n1ccc(C(=O)Nc2ccccc2F)n1	inactive	–
C(=C\c1ccco1)/c1nc2ccccc2[nH]1	active: 12.6 µM	–
O=C(O)C[C@@H](C(=O)O)C1c2ccccc2-c2ccccc21	–	inactive: -2.67% [at 7.66 µM]
CC1=NN(c2ccc([N+](=O)[O-])cc2)C(=O)C1[N+](=O)[O-] (stereo not given)	inconclusive [inhibitor, partial curve]	–
O=C(Nc1ccccc1)c1ccc(CSc2ncccn2)cc1	inconclusive [inhibitor, partial curve]	–
CC(=O)Nc1cccc(Oc2ccc(-c3noc(C)n3)cc2)c1	inactive	–
Cc1ccc(-c2nc3cc(NC(=O)C(C)C)ccc3o2)cc1C	inconclusive [inhibitor, partial curve]	–
Cc1ccc(-c2nc(-c3ccccn3)no2)cc1	active: 3.16 µM	–
Cc1cccc(O)c1	inactive	–
O=C1C(C=Nc2ccccc2)=C(O)c2ccccc21	active: 12.6 µM	–
O=[N+]([O-])c1cccc(/C=N/Nc2nccnc2Cl)c1	active: 10 µM	–
Cc1ccc(NC(=O)c2cc3nc(C)cc(C)n3n2)cc1	inactive	–
Cn1c(-c2ccco2)nc2cc3ccccc3cc21	active: 12.6 µM	–
O=C(/C=C/Nc1cccc(C(F)(F)F)c1)c1ccco1	inactive	–
C(=N\Nc1ccc2ccccc2n1)/c1ccc2c(c1)OCCO2	inconclusive [inhibitor, single point]	–
CC(=O)N1CCN(c2ccc([N+](=O)[O-])c(NCc3cccnc3)c2)CC1	inactive	–
COc1ccc(CC2(CO)CCN(Cc3cnc(-c4ccccc4C)nc3)CC2)cc1	inactive	–

Structure (SMILES)	Potency	activity change, negative = inhibition
C=CCn1c(C)cc(C2=NNC(=NC(C)(C)C)SC2)c1C	inconclusive [inhibitor, partial curve]	–
Nc1ccc2nc(-c3ccccc3)[nH]c2c1	inconclusive [inhibitor, partial curve]	–
CC(=O)[C@@H]1[C@H]2[C@H](C(=O)[C@H]3OC[C@@H]2O3)[C@H]2C=Cc3ccccc3N21	inconclusive [inhibitor, partial curve]	–
C/C(=N\Nc1nccnc1Cl)c1ccc(F)cc1	inconclusive [inhibitor, single point]	–
CCn1cc(-c2cc(C(=O)O)c3ccccc3n2)cn1	inconclusive [inhibitor, partial curve]	–
Cc1cc(C(=O)COC(=O)c2n[nH]c3ccccc23)c(C)n1CC1CCCO1 (stereo not given)	inconclusive [inhibitor, partial curve]	–
C=C(C)Cn1c(CCn2c3ccccc3c3ccccc32)n[nH]c1=S	inactive	–
Cc1ccc(-n2[nH]c(C)c(/C=N/Nc3ccc([N+](=O)[O-])cc3[N+](=O)[O-])c2=O)cc1C	inconclusive [inhibitor, partial curve]	–
c1ccc(-c2noc(-c3cccnc3)n2)nc1	inconclusive [inhibitor, partial curve]	–
O=C(/C=C/c1ccc2c(c1)OCCCO2)c1ccccc1O	inconclusive [inhibitor, single point]	–
Cc1nc(Nc2nc3ccccc3o2)nc2c1CCC2	inconclusive [inhibitor, single point]	–
Cc1ccc2c(c1)C(N1CCCC1=O)CC(c1ccco1)N2 (stereo not given)	active: 11.2 µM	–
COc1ccc(-c2cc3c(nn2)-c2ccccc2C3=O)cc1	active: 5.01 µM	–
c1ccc2nc(-c3ccc(N4CCOCC4)cc3)ccc2c1	inconclusive [inhibitor, single point]	–
O=C(NCC1CCCO1)c1csc(Nc2cccc3ccccc23)n1 (stereo not given)	active: 12.6 µM	–
O=C(Nc1ccc(NC(=O)c2ccco2)nc1)c1ccccn1	active: 10 µM	–
CCn1nccc1C(=O)Nc1ccc(Cl)cn1	inconclusive [inhibitor, single point]	–
CC(C(=O)NCC1CCCCC1)N1CCN(S(=O)(=O)c2ccccc2F)CC1 (stereo not given)	inactive	–
Cc1cc(C2=NNC(=NC3CC3)SC2)c(C)n1-c1ccccc1F	active: 11.2 µM	–
CC1=NN(c2ccccc2)C(=O)/C1=C/C=C/C=C/N(C)C	inconclusive [inhibitor, partial curve]	–
COC(=O)Cc1[nH]n(-c2nc3ccccc3s2)c(=O)c1C(C)=O	inconclusive [inhibitor, partial curve]	–
Cc1ccc(O)c(N=Nc2ccccc2)n1	active: 891 nM and active: 2.82 µM	–
Cc1cccc(/C=C2\CCC(=C3SCCCS3)C2=O)c1	inconclusive [inhibitor, single point]	–
COc1cc(OC)cc(-c2nc3cc(C)ccc3o2)c1	inconclusive [inhibitor, partial curve]	–
COC(=O)c1sccc1NC(=O)CSc1nnnn1-c1ccccc1F	inactive	–
O=C(Nc1ccc(F)cc1)c1nc[nH]c1C(=O)Nc1ccc([N+](=O)[O-])cc1	inactive	–
O=C(N/N=C/c1ccc([N+](=O)[O-])cc1)c1[nH]ncc1Br	inconclusive [inhibitor, partial curve]	–

Structure (SMILES)	Potency	activity change, negative = inhibition
Cc1cc(C(=O)N/N=C/c2ccc(N3CCOCC3)cc2)c(C)o1	active: 11.2 µM	–
O=C(/C=C/c1ccc(Br)cc1)NC(=S)N1CCOCC1	inconclusive [inhibitor, single point]	–
CC(C)CCN(CC(=O)NC(C)(C)C)C(=O)C(=O)Nc1ccc2c(c1)OCCO2	inactive	–
O=C1c2ccccc2-c2nnc(-c3ccc(O)cc3)cc21	active: 11.2 µM	–
O=C(Nc1ccc2c(c1)OCO2)c1cccc(Cl)c1	inconclusive [inhibitor, partial curve]	–
CC1=NN(Cc2ccccc2)C(=O)/C1=C/c1ccc(N(C)C)cc1	inconclusive [inhibitor, partial curve]	–
CN1/C(=C/C(=O)C2CCC2)Sc2ccccc21	inconclusive [inhibitor, single point]	–
O=C(CNC(=O)/C(=C/c1ccccc1)NC(=O)c1ccc(Br)cc1)OCc1ccccc1	inactive	–
C/C(=N\Nc1cccc2cccnc12)c1ccccn1	inconclusive [inhibitor, single point]	–
O=C(Nc1ccc(-c2nc3ccccc3[nH]2)cc1)C1CCCO1 (stereo not given)	active: 3.98 µM	–
COc1cccc(C(=O)Nc2nc3ccccc3[nH]2)c1	active: 12.6 µM	–
CC(=O)c1ccc(NC(=O)c2cccs2)cc1	inconclusive [inhibitor, partial curve]	–
COc1cccc(C(=O)Nc2ccc(NC(=O)C3CC3)cn2)c1	inconclusive [inhibitor, partial curve]	–
Nc1nonc1C(=O)N/N=C/c1ccncc1	inconclusive [inhibitor, partial curve]	–
N/C(=N\OC(=O)C12CC3CC(CC(C3)C1)C2)c1cccnc1	inactive	–
O=C1C(=Cc2cccs2)C(=O)c2ccccc21	inconclusive [inhibitor, partial curve]	–
CC1C(=O)NN=C1C(=O)N/N=C/c1cccs1 (stereo not given)	inconclusive [inhibitor, partial curve]	–
O=C(Nc1cccc(O)c1)C(=O)Nc1ccccn1	active: 4.47 µM	–
Cc1cc(NC(=O)CSc2ccc(-c3nc4cc(C)c(C)cc4[nH]3)cn2)no1	inconclusive [inhibitor, partial curve]	–
Cc1ccc(NC(=O)c2cccc(Cl)c2)nc1	active: 11.2 µM	–
NC1=NN=C(c2ccc3c(c2)OCCO3)CS1	inconclusive [inhibitor, single point]	–
Cc1cc(C)n2nc(C(=O)OCC(=O)Nc3ccc4c(c3)OCO4)nc2n1	inactive	–
Cc1ccccc1Cn1c(=O)n(CCC(=O)NCc2ccc3c(c2)OCO3)c(=O)c2ccccc21	inactive	–
Cc1cc(C)c2c(=O)n(CC(=O)NCCCN3CCOCC3)sc2n1	active: 7.94 µM	–
Cc1cc(NC(=O)c2ccccc2)ncc1NC(=O)c1cccs1	active: 11.2 µM	–
O=C(Nc1cccnc1)c1noc2c1CCCC2	inconclusive [inhibitor, partial curve]	–
